Consider 28 compounds from PubChem BioAssay AID1745853 (National Center for Advancing Translational Sciences (NCATS), 2022).

The list shows a part of the results. The main result of the screen is listed elsewhere. These columns were measured beside it and carry no call.

Common to all, as to test: Primary Screen for Target Class Profiling of Small Molecule Inhibitors of Methyltransferases
Assay [1] concerns the target Glycine N-methyltransferase (Homo sapiens) (UniProt Q14749). As to conditions: purified enzyme, MTase-Glo SAH luminescence; measured here: GNMT inhibition; at 40 µM; stronger effect = lower value. The method, boiled down: (§1)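 Each enzyme was assayed with SAM and its substrate. SAH formation detected by MTase-Glo luminescence; single-point 40 uM screen[…].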
For assay [2], the target named is Guanidinoacetate N-methyltransferase (Homo sapiens) (UniProt Q14353). As to conditions: purified enzyme, MTase-Glo SAH luminescence; measured here: GAMT inhibition; at 40 µM; stronger effect = lower value. The gist of the method: as §1
Assay [3] has as its target Histamine N-methyltransferase (Homo sapiens) (UniProt P50135). As to conditions: purified enzyme, MTase-Glo SAH luminescence; measured here: HNMT inhibition; at 40 µM; stronger effect = lower value. The method, boiled down:
as §1

The target in assay [4] is Nicotinamide N-methyltransferase (Homo sapiens) (UniProt P40261). As to conditions: purified enzyme, MTase-Glo SAH luminescence; measured here: NNMT inhibition; at 40 µM; stronger effect = lower value. The gist of the method: as §1
Assay [5] deals with Phenylethanolamine N-methyltransferase (Homo sapiens) (UniProt P11086). As to conditions: purified enzyme, MTase-Glo SAH luminescence; measured here: PNMT inhibition; at 40 µM; stronger effect = lower value. The method, boiled down: as §1
On the % scale 0 is the no-effect control and ±100 the full control effect.

On to `COc1ccccc1CNC(=O)C1(C)Cn2nc(-c3ccccc3)cc2C(=O)N1Cc1ccccc1OC` (stereo not given), for which the activity change, negative = inhibition in assay [1] is -3.02%; in assay [2] it was 4.18%; in assay [3] it was -0.606%; in assay [4], -8.43%; in assay [5], -2.89%.

Turning to `Cc1ccc(Cn2c(=O)c3ccccc3n3c(CCC(=O)NCc4ccccc4)nnc23)cc1`, the activity change, negative = inhibition was -0.225% in assay [1]; 0% in assay [2]; 7.78% in assay [3]; 2.08% in assay [4]; 0.739% in assay [5].

As to `COCCCN1C(=O)c2nc3ccccc3n2CC1(C)C(=O)NC1CCC(C)CC1` (stereo not given), the activity change, negative = inhibition in assay [1] was -7.17%; in assay [2] it was -3.05%; in assay [3], 1.44%; in assay [4] it was -7.22%; in assay [5], -9.32%.

As for `Cn1c(C(=O)Nc2ccc3c(c2)OCO3)cc2c1CCN(Cc1cccc(F)c1)C2`, the activity change, negative = inhibition in assay [1] is -12.9%; in assay [2], -9.62%; in assay [3], -28.1%; in assay [4] it was -26.2%; in assay [5], -35.5%.

In the case of `Cn1c(=O)c2ccc(C(=O)NC3CCCC3)cc2n2c(=O)n(CC(=O)NCc3ccccc3)nc12`, the activity change, negative = inhibition came to 3.54% in assay [1]; 0.254% in assay [2]; 4.03% in assay [3]; 5.15% in assay [4]; 2.99% in assay [5].

`CC(=O)C1=CCC2C3CCC4CC(O[C@@H]5O[C@H](CO)[C@@H](O[C@@H]6O[C@@H](C)[C@H](O)[C@@H](O)[C@H]6O)[C@H](O)[C@H]5O[C@@H]5O[C@H](CO)[C@@H](O)[C@H](O)[C@H]5O)CCC4(C)C3CCC12C` (stereo not given in full): the activity change, negative = inhibition was 6.71% in assay [1]; 5.12% in assay [2]; 1.03% in assay [3]; -7.63% in assay [4]; 8.32% in assay [5].

With `CC(C)CNC(=O)N1CCn2cccc2C1C` (stereo not given), the activity change, negative = inhibition in assay [1] was determined as 5.38%; in assay [2], 2.6%; in assay [3], 10.5%; in assay [4] it was 8.81%; in assay [5], 8.95%.

Turning to `Clc1ccc(C(c2ccc(Cl)cc2)n2cc[n+](CC(OCc3ccc(Cl)cc3Cl)c3ccc(Cl)cc3Cl)c2)cc1` (stereo not given), the activity change, negative = inhibition in assay [1] was -16.4%; in assay [2] it was 9.94%; in assay [3], -70.6%; in assay [4] it was -49.7%; in assay [5] it was -2.08%.

`COc1ccc(NC(=O)[C@@H]2C[C@H](c3ccc(F)cc3)N(Cc3ccccc3Cl)C2)cn1`: the activity change, negative = inhibition in assay [1] is -3.31%; in assay [2], -0.168%; in assay [3], 0.525%; in assay [4], -7.45%; in assay [5], -2.88%.

For `COc1ccc(-c2n[nH]n3c2nc(=O)c2ccc(C(=O)NCCC(C)C)cc23)cc1`, the activity change, negative = inhibition is 1.57% in assay [1]; 1.15% in assay [2]; 8.12% in assay [3]; 5.1% in assay [4]; -2.93% in assay [5].

For the compound `CC(=O)OC1C(OC(=O)c2ccccc2)C2C(C)(C)CCC(OC(C)=O)C2(C)C23CCC(C)(C2)C(=O)CC13` (stereo not given), the activity change, negative = inhibition in assay [1] was 4.25%; in assay [2], 3.04%; in assay [3] it was 4.04%; in assay [4], -13%; in assay [5] it was 3.02%.

In the case of `COc1ccccc1C(=O)N1CCCN(c2nnc3ccccn23)CC1`, the activity change, negative = inhibition in assay [1] was -1.68%; in assay [2], -2.47%; in assay [3] it was -1.23%; in assay [4] it was -5.08%; in assay [5], 0.051%.

As for `COc1ccc(-c2cc3n(n2)CC(C)(C(=O)NCc2ccccc2)N(Cc2cccc(OC)c2)C3=O)cc1` (stereo not given), the activity change, negative = inhibition was 2.6% in assay [1]; 2.87% in assay [2]; 7.15% in assay [3]; 0.464% in assay [4]; 0.06% in assay [5].

As to `CN1C(=O)c2cc3ccccc3n2CC1(C)C(=O)NCC(=O)NCCc1cccs1` (stereo not given), the activity change, negative = inhibition in assay [1] was determined as 1.49%; in assay [2], 0%; in assay [3], 11.4%; in assay [4] it was 1.99%; in assay [5] it was 5.18%.

For `COc1ccc(OCC(=O)N2CCN(c3cc(-c4ccccc4)[nH]n3)CC2)cc1`, the activity change, negative = inhibition is -10.7% in assay [1]; -13.5% in assay [2]; -4.11% in assay [3]; -9.38% in assay [4]; -5.18% in assay [5].

On to `CCCN1C(=O)c2cc3occc3n2CC1(C(=O)NC1CCCCCCC1)c1ccccc1` (stereo not given), for which the activity change, negative = inhibition in assay [1] is 0.798%; in assay [2] it was 3.64%; in assay [3], -5.17%; in assay [4] it was -4.25%; in assay [5], -4.62%.

On to `CCCN1C(=O)c2c(C(=O)NCc3cccc(F)c3)ncn2CC1(C)C(=O)NCCC(C)C` (stereo not given), for which the activity change, negative = inhibition is -2.02% in assay [1]; 2.27% in assay [2]; -4.05% in assay [3]; 2.05% in assay [4]; 3.91% in assay [5].

As to `COc1ccc2cc3n(c2c1)CC(C)(C(=O)NC1CCCCC1)N(c1ccc(OC)c(OC)c1)C3=O` (stereo not given), the activity change, negative = inhibition in assay [1] was determined as 3.54%; in assay [2] it was 2.28%; in assay [3], 8.46%; in assay [4], 9.09%; in assay [5], 3.11%.

Turning to `COC(=O)C[C@H]1C(C)(C)[C@H](OC(=O)C(C)C)C2CC3=C4CC(=O)O[C@@H](c5ccoc5)[C@]4(C)CCC3[C@@]1(C)C2=O` (stereo not given in full), the activity change, negative = inhibition is 3.01% in assay [1]; 2.76% in assay [2]; 8.3% in assay [3]; -8.32% in assay [4]; -5.8% in assay [5].

For the compound `O=C(O)CC1CC(c2ccccc2)=NO1` (stereo not given), the activity change, negative = inhibition in assay [1] was -3.33%; in assay [2], -3.38%; in assay [3] it was 1.16%; in assay [4], -15.7%; in assay [5], -2.95%.

Regarding `COc1ccccc1CNC(=O)C1c2c(n(C)c3ccccc23)SCC(=O)N1c1cccc(Cl)c1` (stereo not given), the activity change, negative = inhibition was 10.6% in assay [1]; 0.794% in assay [2]; 2.41% in assay [3]; -3.41% in assay [4]; 4.34% in assay [5].

Take `C=C1C(O)CCC2(C)CC3(OC)OC(=O)C(C)=C3CC12` (stereo not given): the activity change, negative = inhibition was 2.61% in assay [1]; 8.47% in assay [2]; 8.13% in assay [3]; -5.3% in assay [4]; 6.91% in assay [5].

For the compound `COc1ccc(OC)c(S(=O)(=O)N2CCCC3(CC2)CNC(=O)O3)c1` (stereo not given), the activity change, negative = inhibition in assay [1] amounted to 0.255%; in assay [2] it was 0%; in assay [3], 3.19%; in assay [4] it was 1.96%; in assay [5] it was 4.87%.

Consider `CC1CCC(NC(=O)C2(C)Cc3ccccc3C(=O)N2Cc2ccc(Cl)cc2)CC1` (stereo not given), for which the activity change, negative = inhibition in assay [1] is -6.08%; in assay [2], 6.97%; in assay [3] it was 1.64%; in assay [4], -3.1%; in assay [5], -3.19%.

For the compound `CC1=C(C)C(=O)OC(C(C)C2C(O)CC3C4C5OC5C5(O)CC(OC6OC(CO)C(OC7OC(C)C(O)C(O)C7O)C(O)C6O)CC(O)C5(C)C4CCC32C)C1` (stereo not given), the activity change, negative = inhibition in assay [1] is -3.29%; in assay [2], -7.52%; in assay [3], 7.21%; in assay [4], -19.2%; in assay [5], -11.1%.

Consider `O=C1CCC(CNS(=O)(=O)c2cccnc2)CCN1Cc1ccccc1` (stereo not given), for which the activity change, negative = inhibition is -1.22% in assay [1]; -0.904% in assay [2]; 0.198% in assay [3]; -5.4% in assay [4]; 1.41% in assay [5].

Turning to `CC(C)CCn1c(=O)c2ccc(C(=O)NC(C)C)cc2n2c(=O)n(CC(=O)NC(C)C)nc12`, the activity change, negative = inhibition is -1.38% in assay [1]; 3.98% in assay [2]; -1.64% in assay [3]; -6.32% in assay [4]; -0.462% in assay [5].

With `CS(=O)(=O)N1C[C@@H]2OCC(=O)N(Cc3ccncc3)[C@@H]2C1`, the activity change, negative = inhibition in assay [1] was -4.58%; in assay [2], -5.78%; in assay [3], -2.88%; in assay [4] it was -10.5%; in assay [5], -4.14%.
